Results: ChEMBL document CHEMBL4888484, “Replenishing the malaria drug discovery pipeline: Screening and hit evaluation of the MMV Hit Generation Library 1 (HGL1) against asexual blood stage Plasmodium falciparum ,using a nano luciferase reporter read-out” (2022)
Out of some 150,000 compounds screened, about 540 (0.36%) showed an effect of 50% or more. This is one part of the list.

System: Plasmodium falciparum
Test: Primary screen in NF54 nanoGlo assay, in single point, at 2uM, 72h; a lower Z score goes with more inhibition
Format: functional, Erythrocyte
Settings: timepoint 72 hour

| SMILES | % Inhibition [%] | Z score |
| --- | --- | --- |
| CN1CCC2C(CCCN2C(=O)C2(C3CCC3)CCC2)C1 (centres undefined) | -15 | 2.64 |
| CCn1c(C)c(C)c2cc(C(=O)Nc3cccc(S(=O)(=O)N4CCOCC4)c3)ccc21 | 31 | -0.04 |
| O=C(N[C@H]1CCCNC1=O)c1ccc(-c2ccc3c(c2)CCO3)cc1 | 3 | -0.52 |
| CC(C)c1cc(NCc2cccnc2Oc2ccc(F)cc2F)ncn1 | -2 | 0.32 |
| CCS(=O)(=O)NCCNc1ccccn1 | 1 | -0.11 |
| COCC(=O)N1CCCC[C@H]1C1=CCCN(Cc2c(C)noc2C)C1 | 4 | -0.71 |
| Cc1nn(C)cc1NC(=O)CN1CCC[C@H](CNC(=O)c2ccco2)C1 | -4 | 0.7 |
| Cc1occc1C(=O)NCc1ccc(CN2CC(C)CC(C)C2)cc1 (centres undefined) | -1 | 0.08 |
| CCn1c(CC2CCN(Cc3ccnn3-c3ccccc3)CC2)n[nH]c1=O | -1 | 0.17 |
| Cc1ccc(-c2[nH]c([C@H]3CC(=O)N(C4CC4)C3)nc2C)c(C)c1 | -12 | 2.21 |
| O=C(Nc1cc(F)ccc1Br)NC1CCOC1C1CC1 (centres undefined) | -10 | 1.24 |
| COc1ccc(=O)n(C[C@@H](O)CCc2ccccc2)n1 | -13 | 1.3 |
| CC(C)(CNC1CCN(C(N)=O)CC1)c1ccc(C(F)(F)F)cc1 | -12 | 1.9 |
| O[C@H](COc1ccc2ccccc2c1)CN1CCN(c2nccs2)CC1 | 1 | -0.11 |
| COc1ccc(CNC(=O)N2C[C@@H]3C[C@H](NS(=O)(=O)c4cccs4)[C@H]2C3)cc1 | 34 | -3.89 |
| Nc1c(NC(=O)NCCc2ccccc2)c(-c2ccc(Cl)cc2)nn1-c1cc(F)ccc1F | 5 | -0.73 |
| COc1ccc2c(=O)n(Cc3nc(-c4ccccc4)no3)oc2c1 | -9 | 1.1 |
| CNc1ncc(C(=O)N2CC[C@]34C(=O)N(Cc5cn(nn5)CCCOc5cccc(c5)[C@H]23)c2ccccc24)cn1 | 2 | -0.21 |
| CCN1CCN([C@H]2CCN(C(=O)Nc3cccc4c3CCN(C)C4=O)C2)CC1 | -10 | 1.29 |
| CC[C@H](O)CNC(=O)c1cc(C)sn1 | -19 | 3.75 |
| COCCCn1cnnc1CNC(=O)[C@H](C)n1cc(Cl)cn1 | -10 | 1.65 |

| SMILES | % Inhibition [%] | Z score |
| --- | --- | --- |
| CC(C)n1ncc2c1C[C@@H](NC(=O)c1cccn1C)CC2 | -11 | 1.49 |
| Cn1c(N2CCC(C(=O)NCc3ccc(Cl)cc3)CC2)cc(=O)n(C)c1=O | -6 | 1 |
| CC1(C)CC(=O)C2(Cc3c(ccc4ccccc34)N(Cc3ccc4c(c3)OCO4)C2)C(=O)C1 | -38 | 4.41 |
| COCCc1nc([C@H]2CCCS(=O)(=O)C2)n(-c2cccc(C)c2C)n1 | -15 | 1.57 |
| CO[C@H]1CCCN(c2ncnc3c2nnn3C)CC1 | 1 | -0.1 |
| Cc1ccc2[nH]c3c(=O)n(CC(=O)N4CCN(c5cccc(C(F)(F)F)c5)CC4)cnc3c2c1 | -1 | 0.14 |
| COC[C@H](C)OC(=O)c1cc(CC(C)C)n[nH]1 | 3 | -0.39 |
| CN(C)c1ccc(C(=O)N(CCC#N)Cc2ccco2)cn1 | -9 | 1.54 |
| CC(C)N(C(=O)c1cc2c(F)cccc2s1)c1ncccc1C#N | -6 | 0.74 |
| Cc1nsc(NC(c2ccc(Cl)cc2)C2CN(C)CCO2)c1C#N (centres undefined) | -7 | 1.29 |
| CC(C)(CNC(=O)NC1CC2CC2C1)C1=CCOCC1 (centres undefined) | 2 | -0.37 |
| COc1ccc(CCNC(=O)CN2C(=O)C[C@](C)(c3ccc(Br)cc3)C2=O)cc1 | -4 | 0.46 |
| CCC1COCCN1C(=O)C1CC12CCc1ccccc12 (centres undefined) | -4 | 0.49 |
| CCc1nc(N)nc(NC[C@H]2CCCN(Cc3ccco3)C2)c1C | -8 | 0.99 |
| CC(C)CN1CCC(C(=O)N2CC3CC=CCC3C2)C1 (centres undefined) | 4 | -0.41 |
| Cc1ccc(S(=O)(=O)N2CC(C)N(C(=O)N3CCOCC3)C2C)cc1 (centres undefined) | 36 | -4.9 |
| Cn1ncnc1CCn1ccnc1-c1ccccn1 | -10 | 1.11 |
| CCOC(=O)c1cnn(-c2nc(-c3ccc(OC)cc3)cs2)c1CN1C[C@@H](C)O[C@@H](C)C1 | -5 | 0.54 |
| CCN1CCC[C@@H]1CNC(=O)c1n[nH]c2c1CCc1c(OC)cccc1-2 | -5 | 0.58 |
| CCN(C1CN(S(=O)(=O)C2CCOC2C)C1)S(=O)(=O)C1CCOC1C (centres undefined) | -7 | 1.01 |
| O=S(=O)(C1COC1)N1CCC=C(F)C1 | -6 | 0.84 |
